# Data published in PubChem BioAssay AID1347055 (National Center for Advancing Translational Sciences (NCATS), 2019).
# Screen size: about 54,000 compounds; about 120 (0.22%) were called active. Inconclusive means that the source gave no clear call. Such entries were picked first, then a sample of the others. Calls come from the whole dose curve; as a rule, active = well fitted inhibition curve with a large enough effect; inconclusive = small, poorly fitted or top-dose-only effect, or effect the other way; inactive = flat fitted curve, though single readings scatter. Potencies of inconclusive entries are left out as doubtful fits.
# Target: Fumarate hydratase, mitochondrial (Homo sapiens) (UniProt P07954)
# Test: Identification of activators of human fumarate hydratase by quantitative high-throughput screening; note: the screen sought activators but most active calls are inhibition curves; nearly all actives have a fitted effect of over 45% in size
# Conditions: FH coupled MDH/diaphorase resazurin fluorescence, 15 min; series mostly up to 79.9 µM
# Potency is the fitted concentration of half-maximal effect; tags give direction and shape of the fitted curve.
# Sequence of UniProt P07954 (P07954 whole entry, looked up): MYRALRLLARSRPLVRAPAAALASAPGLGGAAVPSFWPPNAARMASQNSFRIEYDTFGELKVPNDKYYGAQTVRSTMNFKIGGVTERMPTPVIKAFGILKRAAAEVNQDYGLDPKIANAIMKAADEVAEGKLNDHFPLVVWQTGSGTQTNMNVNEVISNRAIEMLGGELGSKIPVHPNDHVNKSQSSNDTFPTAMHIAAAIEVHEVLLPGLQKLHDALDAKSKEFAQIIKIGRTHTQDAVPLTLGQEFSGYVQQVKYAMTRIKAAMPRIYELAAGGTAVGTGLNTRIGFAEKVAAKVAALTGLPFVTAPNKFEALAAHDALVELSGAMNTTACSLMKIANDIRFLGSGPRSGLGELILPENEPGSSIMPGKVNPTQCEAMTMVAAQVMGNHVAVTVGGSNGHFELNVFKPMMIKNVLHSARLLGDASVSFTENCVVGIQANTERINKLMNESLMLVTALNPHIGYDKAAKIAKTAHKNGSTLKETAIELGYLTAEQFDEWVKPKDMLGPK
row,Compound,Potency
1,CC(C)(C)OC(=O)N1CCC(c2c(C(=O)NCc3cccs3)cnn2-c2ccc(F)cc2F)CC1,"inconclusive [inhibitor, partial curve, poor fit]"
2,Cc1nc2c(C(=O)NCCc3ccccc3)cnn2c(C)c1Cc1c(F)cccc1Cl,"inconclusive [inhibitor, single point]"
3,CSc1ccc(-c2nc3ncccn3c2Nc2ccc(C)c(C)c2)cc1,"inconclusive [inhibitor, single point]"
4,COc1ccc(C2=CC(c3ccccc3F)n3ncc(C(=O)Nc4ccc(C)cc4)c3N2)cc1 (centres undefined),inactive
5,Cc1ccc(NC(=O)c2cccc(N3CCCS3(=O)=O)c2)cc1,inactive
6,CC(C)c1ccc(S(=O)(=O)c2cnc(SCC(=O)Nc3cccc(C(F)(F)F)c3)nc2N)cc1,"inconclusive [inhibitor, single point]"
7,Cc1cccc(-n2c(=O)c3c(c4cc(C)ccc4n3C)n(CC(=O)NCCC3=CCCCC3)c2=O)c1,"inconclusive [inhibitor, partial curve, poor fit]"
8,CC(=O)Nc1cc(C(=O)NCc2ccc(C)cc2)ccc1Sc1ccc(C)cc1,"inconclusive [inhibitor, partial curve, poor fit]"
9,COc1ccc(-c2cccc(NS(=O)(=O)c3cc(C)c(OC)c(C)c3C)c2)nn1,"inconclusive [inhibitor, single point]"
10,CC1=C(CCC(C)CC(=O)O)[C@@]2(C)CCCC(C)(C)C2CC1=O (some centres undefined),inactive
11,O=C(/C=C/c1ccccc1)O[C@@H]1[C@@H](CO)O[C@@](CO)(O[C@H]2O[C@H](CO)[C@@H](O)[C@H](O)[C@H]2O)[C@H]1O,inactive
12,Cc1ccc(OCC(=O)Nc2cc(-c3nc4ccccc4[nH]3)ccc2C)c(C)c1,inactive
13,CO[C@H]1C[C@@H]2CC[C@@H](C)[C@@](O)(O2)C(=O)C(=O)N2CCCC[C@H]2C(=O)O[C@H]([C@H](C)C[C@H]2CC[C@@H](OP(C)(C)=O)[C@H](OC)C2)CC(=O)[C@H](C)/C=C(\C)[C@@H](O)[C@@H](OC)C(=O)[C@H](C)C[C@H](C)/C=C/C=C/C=C/1C,inactive
14,Cc1ccc(CSc2ccc3nnc(CCNS(=O)(=O)c4ccc(C)cc4)n3n2)cc1,"inconclusive [inhibitor, partial curve, poor fit]"
15,CC[C@@H](C)Nc1cc(C(=O)NC2CC3CC[C@@H](C2)N3c2ccc(C(=O)C3CC3)cn2)c(C)cc1C(N)=O (some centres undefined),inactive
16,CC[C@H]1OC(=O)[C@H](C)C(=O)[C@H](C)[C@@H](OC2O[C@H](C)C[C@H](N(C)C)[C@H]2O)[C@@H](C)C[C@@H](C)C(=O)/C=C/[C@]1(C)O (some centres undefined),"inconclusive [inhibitor, single point]"
17,COc1ccc(Cl)cc1NC(=O)CSc1c2c(nc3ccccc13)CCC2,"inconclusive [inhibitor, single point]"
18,c1ccc(-c2cnc(Nc3ccc(OCCN4CCCC4)cc3)s2)cc1,"inconclusive [activator, partial curve, poor fit]"
19,COC(=O)c1c(C)sc(-c2c(-c3ccc4c(c3)OCCO4)[nH]c3[nH]c(=O)[nH]c(=O)c23)c1O,"inconclusive [inhibitor, partial curve, poor fit]"
20,O=S(=O)(c1ccc(Br)cc1)c1nnn2c1nc(Nc1cccc(C(F)(F)F)c1)c1sccc12,inactive

row,Compound,Potency
1,Cc1cccc(NC(=O)c2c(NC(=O)c3ccccc3)sc3c2CCCC3)c1,inactive
2,CC(C)=CCC/C(C)=C/CCC1(C)Oc2c(c(O)cc3c2CN(C(CCC(=O)O)C(=O)O)C3=O)CC1O (centres undefined),inactive
3,CC(C)Oc1ccc(CNC(=O)Nc2ccc3c(c2)N(C)C(=O)c2ccccc2S3)cc1,"inconclusive [inhibitor, single point]"
4,O=C(Nc1cccc2cccnc12)c1cccc2ccccc12,inactive
5,CCOC(=O)c1ccc(NC(=O)c2csc3c2CCCC3)cc1,"inconclusive [inhibitor, partial curve, poor fit]"
6,CCOc1ccc(-c2nn(-c3ccccc3)cc2C2NC(=O)NC(C)=C2C(=O)OC(C)C)cc1C (centres undefined),"inconclusive [inhibitor, partial curve, poor fit]"
7,COC(=O)c1ccc2c(c1)N(CC(=O)Nc1cccc(C(F)(F)F)c1)C(=O)c1ccccc1S2,inactive
8,COc1cc(CNc2ccc3c(c2)ncn3C(C)C)cc(OC)c1OC,"inconclusive [inhibitor, partial curve]"
9,Fc1ccccc1OCc1nc(-c2ccc(-n3cccc3)cc2)no1,inactive
10,COc1ccc(NC(=O)CSc2c3c(nc4ccccc24)CCC3)c(OC)c1,"inconclusive [inhibitor, single point]"
11,Cc1ccccc1-n1c(=O)c2c3c(sc2n2cnnc12)CCCC3,"inconclusive [inhibitor, single point]"
12,Cc1ccc(NC(=O)c2sc3nc(-c4ccc(F)cc4)ccc3c2N)cc1F,inactive
13,Cc1ccc(-c2cc3c(n2-c2ccccc2F)CC(C)(C)CC3=O)cc1,inactive
14,Cc1ccc(Cl)cc1N1CCN(CCCNC(=O)c2nnc(Cc3cccc(Cl)c3)o2)CC1,"inconclusive [inhibitor, partial curve, poor fit]"
15,CC(CNC(=O)Cn1c(-c2cccs2)cc2ccccc21)c1ccccc1 (centres undefined),"inconclusive [inhibitor, partial curve, poor fit]"
16,O=c1ccc2ccc(O)c(O)c2o1,"inconclusive [inhibitor, partial curve, poor fit]"
17,O=c1cc2nc(-c3ccccc3F)nc(SCc3ccc(Br)cc3)n2[nH]1,"inconclusive [inhibitor, full curve]"
18,Cc1ccc(-n2ccnc(NCCc3ccccc3)c2=O)cc1C,inactive
19,CC(C)c1ccc(NC(=O)c2cc(S(=O)(=O)NC3CCCCC3)ccc2F)cc1,"inconclusive [inhibitor, full curve, poor fit]"
